Reference: PubChem BioAssay AID1159614 (National Center for Advancing Translational Sciences (NCATS), 2016)
In all, about 45,000 compounds went through this assay and about 65 (0.1%) were called active. The call rests on the fitted dose curve; in most records, active means well fitted activation curve with a large enough effect; inconclusive means small, poorly fitted or top-dose-only effect; inactive means no such curve, though single readings can be large or run the other way. The list shows a part of the results.

What follows are compounds tested against Galactocerebrosidase (Homo sapiens) (UniProt P54803) (assay: A Novel Cell-Based Assay to Identify Small Molecules for B -Galactocerebrosidase). Details: 145M-Twi-hGALC-G270D cells (Twitcher mouse brain line with human GALC G270D), HMU-beta-Gal fluorescence, 48 h; series mostly up to 57.5 µM; activation: at the top concentration.
In short: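 Mutant human GALC (G270D), stably expressed in a Twitcher mouse brain cell line lacking endogenous GALC, is measured in live-treated cells via 6-hexadecanoylamino-4-methylumbelliferyl-β-galactoside hydrolysis (0.1 mM final, pH 5.2) with fluorescent detection.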
Further: 0% is about no effect; nearly all actives have a fitted effect of over 65% in size.

UniProt P54803, sequence (P54803 whole entry, looked up): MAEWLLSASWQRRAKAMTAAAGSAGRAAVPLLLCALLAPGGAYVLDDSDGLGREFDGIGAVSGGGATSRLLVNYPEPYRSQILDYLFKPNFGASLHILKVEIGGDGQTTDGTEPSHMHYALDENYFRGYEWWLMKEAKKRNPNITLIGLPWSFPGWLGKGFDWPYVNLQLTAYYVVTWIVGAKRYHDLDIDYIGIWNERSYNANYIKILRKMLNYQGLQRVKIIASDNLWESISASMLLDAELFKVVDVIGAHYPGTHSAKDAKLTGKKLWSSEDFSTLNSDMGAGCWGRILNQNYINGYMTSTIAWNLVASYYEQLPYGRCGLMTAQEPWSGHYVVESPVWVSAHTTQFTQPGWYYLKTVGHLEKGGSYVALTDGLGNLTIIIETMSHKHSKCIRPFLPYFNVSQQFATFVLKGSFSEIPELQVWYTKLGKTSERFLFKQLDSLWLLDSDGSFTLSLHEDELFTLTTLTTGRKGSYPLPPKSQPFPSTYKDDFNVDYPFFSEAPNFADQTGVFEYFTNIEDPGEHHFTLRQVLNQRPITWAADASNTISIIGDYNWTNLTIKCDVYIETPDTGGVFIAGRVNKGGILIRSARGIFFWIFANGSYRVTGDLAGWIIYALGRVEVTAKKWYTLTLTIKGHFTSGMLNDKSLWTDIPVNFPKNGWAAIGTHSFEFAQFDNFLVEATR

activation, inactive:
Cc1ccc(C(=O)N/C(=C\c2cn(S(=O)(=O)N(C)C)c3ccccc23)C(=O)NCCCn2ccnc2)cc1 -22.4%
COc1ccc(NC(=O)c2ccco2)cc1NC(=O)COc1ccccc1Cl -21.6%
CCCn1ccc2c(OCC(=O)Nc3ccc(F)cc3F)cccc2c1=O -9.64%
Cc1cccc(OCC(=O)Nc2ccc3c(c2)N(C)C(=O)c2ccccc2S3)c1 -15.1%
COc1ccc(-n2nc(C(=O)N3CCN(c4cccc(C)c4)C(C)C3)c3c4ccccc4n(C)c3c2=O)cc1 (stereo not drawn) -15.1%
Nc1ccc(S(=O)(=O)Nc2ccccc2)cc1 -15%
Cc1cccc(NC(=O)CSc2nc3c([nH]c4ccccc43)c(=O)n2-c2ccc(F)cc2)c1C -15.8%
CC1CN(C(=O)Nc2ccc(C(=O)NCCc3ccccc3Cl)cc2)c2ccccc2S1 (stereo not drawn) -7.52%
CC(CNC(=O)CN1C(=O)COc2ccc(S(=O)(=O)N3CCCCC3)cc21)c1ccccc1 (stereo not drawn) -14%
Cc1ccc(-n2ncc(C(=O)NCCCN3CCc4ccccc4C3)c2C2CCN(C(=O)OC(C)(C)C)CC2)cc1C -9.07%
COc1ccc2c(c1)c1c(c(=O)n(Cc3ccccc3)c(=O)n1Cc1ccc(C)cc1)n2C 2.83%
Cc1ccccc1C(=O)Nc1ccc(C(=O)OCc2cc(=O)n3nc(C4CC4)sc3n2)cc1 -17.2%
O=C(Nc1ccc(Cl)cc1)C1CCN(S(=O)(=O)c2ccc(Br)s2)CC1 -9.37%
COc1ccc(-c2cc(C(F)(F)F)n3nc(C(=O)Nc4sc5c(c4C#N)CCC(C)C5)cc3n2)cc1OC (stereo not drawn) -9.53%
CCC(C)NC(=O)c1[nH]c2cc(OC)ccc2c1Sc1ccc(C)cc1 (stereo not drawn) -30.3%
CCOC(=O)C1CCN(C(=O)c2cc3ccc4ccc(C)[nH]c4c3n2)CC1 -14%
CCC1CN(C(=O)Nc2ccccc2C(F)(F)F)c2ccccc2S1 (stereo not drawn) -2.13%
CCOC(=O)c1cccc(NC(=O)c2cnn(-c3ccccc3)c2-n2cccc2)c1 -12.3%
CC(=O)c1ccc(N2CCN(S(=O)(=O)c3ccc4[nH]c5c(c4c3)CCCCC5)CC2)cc1 -24.9%
O=C(CSCc1cc(=O)c2ccccc2[nH]1)Nc1cccc(C(F)(F)F)c1 -22.4%
CC(=O)N1c2ccccc2C(=O)C1N1CCN(c2cc(Cl)ccc2C)CC1 (stereo not drawn) 3.89%
COC(=O)c1scc(-c2ccc(C)cc2)c1S(=O)(=O)Nc1c(C)cc(C)cc1C -19.1%
COc1ccc(NC(=O)CN2C(=O)CC(c3ccco3)Sc3ccccc32)cc1OC (stereo not drawn) -3.11%
CCS(=O)(=O)c1ncc(N(Cc2cccc(F)c2)Cc2ccco2)c(C(=O)Nc2ccccc2Cl)n1 -8.87%
Cc1nc2c(-c3ccccc3)c(C)[nH]n2c(=O)c1Cc1ccc(C(C)C)cc1 -29.4%
CCC1CN(C(=O)N2CCC(C(=O)N(C)Cc3ccccc3)CC2)c2ccccc2O1 (stereo not drawn) 2.22%
Cc1ccc2nc(CN3CCN(C(=O)Nc4cccc(C)c4C)CC3)oc2c1 -12.1%
Cc1ccc(CNC(=O)c2cc(S(=O)(=O)N3CCCCC3)cn2C)cc1 -19.9%
CCOc1ccccc1NC(=O)CCNS(=O)(=O)c1ccc2c(c1)CCN2C(=O)C1CC1 -13.8%
CCC(Sc1nnc(-c2ccc(OC)cc2)c(-c2ccc(OC)cc2)n1)C(=O)Nc1cccc(OC)c1 (stereo not drawn) -9.19%
Fc1ccccc1N1CCN(c2c3c(nc4nncn24)CCC3)CC1 -4.19%
CCCCN(C)C(=O)Cn1ncc2c([nH]c3ccc(C)cc32)c1=O 5.6%
Cc1ccc(OCCCC(=O)Nc2sc3c(c2C(N)=O)CCCC3)cc1 -12.4%
Cn1ncc2c(N3CCN(c4ccccc4Cl)CC3)ncnc21 -15.4%
COc1ccc(NC(=O)CN(c2ccc(C)cc2)S(=O)(=O)c2cccs2)cc1OC -13.6%
CCCCS(=O)CC(O)CSc1nc(-c2ccc(OC)cc2)cc(-c2ccccc2)c1C#N (stereo not drawn) -9.19%
Cc1ccc(/C=C/c2onc(C)c2S(=O)(=O)N2CCC(C(=O)NCc3ccc(N(C)C)cc3)CC2)cc1 -9.39%
COc1ccccc1NC(=O)c1sc2nc(-c3cc4ccccc4oc3=O)[nH]c(=O)c2c1C -7.43%
Cc1cc(C)cc(NC(=O)c2cccc(N3CCCS3(=O)=O)c2)c1 -8.44%
Cc1cccc(NC(=O)c2c(NC(=O)c3ccco3)sc3c2CCC(C(C)(C)C)C3)c1 (stereo not drawn) -10.4%
CN(Cc1ccccc1)C(=O)C1CCN(Cc2cc3ccccc3n2Cc2ccccc2)CC1 -16.4%
C#Cc1cccc(Nc2ncnc3cc(OCCOC)c(OCCOC)cc23)c1 -8.16%
Cc1cccc(C(=O)Nc2nnc(SCc3cc(=O)n4cccc(C)c4n3)s2)c1 -9.52%
O=C(Cc1ccc(Cl)cc1)NCC(c1cccs1)S(=O)(=O)c1ccc(Cl)cc1 (stereo not drawn) -2.57%
O=C(CSc1nnc(-c2ccccc2F)o1)N1CCc2ccccc21 -11.7%
COc1ccc(C(=O)N/C(=C\c2cn(S(=O)(=O)N(C)C)c3ccccc23)C(=O)NCCCn2ccnc2)cc1 -0.671%
CCCCN(C)CCNC(=O)c1ccc2c(=O)n(CCc3ccccc3)c(=O)[nH]c2c1 -11.4%
CCc1ccc(NC(=O)C(NS(=O)(=O)c2cccs2)C(C)C)cc1 (stereo not drawn) -9.2%
O=C(Nc1ccc2oc(-c3cccc4c(Br)cccc34)nc2c1)c1ccc(F)cc1 -17.5%
Cn1c(=O)c2c(c3ccccc31)OC(=O)CC2c1ccc(C(F)(F)F)cc1 (stereo not drawn) -15.8%
O=C(COC(=O)c1cc(-c2cccs2)nc2ccccc12)c1ccccc1 -16%
CCOC(=O)c1oc2ccc(S(=O)(=O)n3nc(-c4ccccc4OC)cc3N)cc2c1C -13%
CCCN(Cc1cccs1)C(=O)Nc1cc(Cl)c(OC)cc1OC -15.2%
CCCN(CCC)CCCNC(=O)Cn1cnc2sc(C)c(S(=O)(=O)N3CCCCC3)c2c1=O -25%
O=C(c1ccc2c(c1)N(Cc1ccccc1F)C(=O)c1ccccc1S2(=O)=O)N1CCOCC1 -2.7%
CCn1c(=O)n(-c2ccc(C)c(F)c2)c(=O)c2sc3ccccc3c21 -19.4%
COc1ccc(-c2cc(C(=O)Oc3ccccc3)c3cc(C)ccc3n2)cc1 -21.4%
COc1cccc(-n2c(SCC(=O)Nc3cc(C)ccc3C)nc3c(oc4ccccc43)c2=O)c1 -10.6%
CCOCCCNC(=O)c1ccc2nc(CCc3ccccc3)oc2c1 -4.7%
COc1ccc(C2=NC3(CCCCC3)N(CC(=O)Nc3ccc(C(C)C)cc3)C2=O)cc1 -8.66%
Cc1ccc(-c2nc3nc(C)cc(N4CCN(c5cc(Cl)ccc5C)CC4)n3n2)cc1 -9.45%
Cc1ccc2nc(N(Cc3cccnc3)C(=O)Cc3ccccc3)sc2c1 -22.2%
COc1cccc(CN2CCc3nc(Nc4ccc5c(c4)OCCO5)ncc3C2)c1 -9.98%
O=C(NCCc1cccs1)c1ccc(Cn2c(SCc3ccc(F)cc3)nc3cccnc32)cc1 -14.8%
Fc1ccc(NCc2cccn2-c2nnc(N3CCOCC3)s2)cc1 -22.4%
CC1CCN(c2ncnc3c2cnn3-c2ccc(F)cc2)CC1 -3.91%
CCc1ccc(-n2c(=O)c3c4c(sc3n(CC(=O)NCCCOC)c2=O)CCCC4)cc1 -3.48%
COc1ccc(C(=O)CN2CCN(S(=O)(=O)c3ccc(C(C)C)cc3)CC2)cc1 -21%
CCc1ccccc1NC(=O)CCn1nc(C)c2c(C)n(-c3ccccc3)nc2c1=O -15.3%
COc1cccc(C2CC(=O)Nc3cc4c(cc32)OCCO4)c1OC (stereo not drawn) -18.4%
CCOC(=O)c1ccccc1NC(=O)Cn1ncc2c([nH]c3ccccc32)c1=O -11.5%
Cc1ccccc1Cn1c(SCc2ccc(C(=O)NC(C)c3ccccc3)cc2)nc2ccncc21 (stereo not drawn) -1.76%
COc1cccc(NC(=O)c2sc3nc(C)c(C(=O)Nc4ccc(C)cc4C)c(-c4ccccc4Cl)c3c2N)c1 -23.4%
CCc1ccc(-c2nc(CN3CCC(C(=O)NCCc4ccc(Cl)cc4)CC3)c(C)o2)cc1 -8.03%
CC1(C)O[C@H]2CC(=O)OC[C@]23[C@H]2CC[C@@]4(C)[C@H](c5ccoc5)OC(=O)[C@H]5O[C@]54[C@]2(C)C(=O)C[C@@H]13 -10.2%
NC(N)=NC(=O)Cc1c(Cl)cccc1Cl -13.8%
COC(=O)C1=C(c2ccccc2)c2ccccc2S(=O)(=O)N1CC(=O)Nc1cccc(C(C)=O)c1 -2.45%
Cc1ccc(CCNC(=O)c2ccc(NC(=O)N3CC(C)Sc4ccccc43)cc2)cc1 (stereo not drawn) -14.6%
COc1ccc(-n2nc(C(=O)N(C)c3cccc(C(F)(F)F)c3)c3c4ccccc4n(C)c3c2=O)cc1 -16.6%
COc1cccc(CNC(=O)CCn2c(=O)c3cccn3c3ccc(F)cc32)c1OC 3.61%
CCn1nnc2cc(C(=O)Nc3cccc(Cl)c3)ccc21 -10.4%
Cc1nc2nc(NC(=O)c3cccc(Cl)c3)[nH]n2c(=O)c1Cc1ccccc1 -26.8%
CCCNC(=O)C1CCC(Cn2c(=O)c3sccc3n(Cc3cccc(OC)c3)c2=O)CC1 (stereo not drawn) -11.5%
CCC(C(=O)N1CCN(c2cccc(C)c2C)CC1)n1nc(C)c2sc3ccccc3c2c1=O (stereo not drawn) -13%
O=S(=O)(c1ccc(Br)cc1)c1nc(-c2ccco2)oc1SCc1ccccc1Cl -6.88%
CCCCOc1ccc(CNC(=O)CN2CCSc3ccccc32)cc1 9.3%
Cc1ccc(CCNC(=O)c2nn(C)c3c2CSc2ccccc2-3)cc1 5.32%
CCOC(=O)c1c(S(=O)(=O)N2CCC(C(=O)Nc3ccccc3OC)CC2)c(C)n(CC)c1C -11.2%
COc1ccc(CCNC(=O)Cn2cc(C(=O)c3ccccc3)c(=O)c3ccc(C)nc32)cc1OC -15.2%
CCOc1ccc(-n2c(-c3ccc(C)cc3)nc3c(cnn3-c3ccccc3)c2=O)cc1 -1.88%
CCOC(=O)C1CCC(CN(Cc2ccccc2)S(=O)(=O)c2ccc(Cl)cc2)CC1 (stereo not drawn) -9.12%
COc1ccc(CCNC(=O)CCc2c(C)nc3c(c(C)nn3-c3ccc(C)c(C)c3)c2C)c(OC)c1OC -2.98%
Cc1ccc(NC(=O)CCn2c(=O)c3cccn3c3ccccc32)c(Cl)c1 5.03%
